Like-named read-outs stand apart in the source and are kept apart here. Results are given in words; binding and its absence hold for the method and conditions named. For part of these data: Binding seen in cells or lysates may run through a third protein. Some entries that bind do so weakly or less than the wild type. For part of these data: Where a sequence is shown, tags or fusion partners need not be part of it.
Assays:
[1] = molecular target: Pex3_(1-45)-mCherry-Spa2 (Saccharomyces cerevisiae) (UniProt P23201); experiment: relocation to Spa2-decorated peroxisomes (fluorescence microscopy); Pex3_(1-45)-mCherry-Spa2 on peroxisomes co-expressed with GFP fusions of Aip5 in yeast cells with a deletion of the genomic SPA2; percent of counted cells with co-localisation
[2] = molecular target: Aip5CRU (full-length Aip5 fused to C-terminal Ubiquitin-R (arginine)-Ura3) (Saccharomyces cerevisiae) (UniProt P43597); experiment: split reporter; split-ubiquitin array screen: Aip5CRU a-strain mated with 533 Nub fusion alpha-strains, diploids spotted in quadruplets on 5-FOA medium, 4 days; growth indicates interaction
[3] = molecular target: Aip5_(Δ1000-1125) CRU (Saccharomyces cerevisiae) (UniProt P43597); experiment: split reporter; split-ubiquitin, manual: haploid or diploid yeast co-expressing one CRU and one Nub fusion, tenfold serial dilutions from OD600=1 on medium with or without 1 mg/ml 5-FOA, 30°C, 2-7 days; also in cells lacking BUD6 or SPA2
[4] = molecular target: T1, Aip5 N-terminal 300 amino acids as CRU fusion (Saccharomyces cerevisiae) (UniProt P43597); experiment: as above
T1 sequence: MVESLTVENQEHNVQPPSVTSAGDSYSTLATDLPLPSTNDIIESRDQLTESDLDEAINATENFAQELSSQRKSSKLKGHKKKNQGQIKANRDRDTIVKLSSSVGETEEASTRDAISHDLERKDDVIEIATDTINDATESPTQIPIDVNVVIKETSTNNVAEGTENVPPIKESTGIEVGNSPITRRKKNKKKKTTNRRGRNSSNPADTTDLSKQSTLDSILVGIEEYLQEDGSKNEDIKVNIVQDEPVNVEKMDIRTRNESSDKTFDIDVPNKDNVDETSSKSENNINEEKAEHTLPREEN

Protein sequences, listed by entry. Tags and fused reporters are not part of them.
UniProt P23201: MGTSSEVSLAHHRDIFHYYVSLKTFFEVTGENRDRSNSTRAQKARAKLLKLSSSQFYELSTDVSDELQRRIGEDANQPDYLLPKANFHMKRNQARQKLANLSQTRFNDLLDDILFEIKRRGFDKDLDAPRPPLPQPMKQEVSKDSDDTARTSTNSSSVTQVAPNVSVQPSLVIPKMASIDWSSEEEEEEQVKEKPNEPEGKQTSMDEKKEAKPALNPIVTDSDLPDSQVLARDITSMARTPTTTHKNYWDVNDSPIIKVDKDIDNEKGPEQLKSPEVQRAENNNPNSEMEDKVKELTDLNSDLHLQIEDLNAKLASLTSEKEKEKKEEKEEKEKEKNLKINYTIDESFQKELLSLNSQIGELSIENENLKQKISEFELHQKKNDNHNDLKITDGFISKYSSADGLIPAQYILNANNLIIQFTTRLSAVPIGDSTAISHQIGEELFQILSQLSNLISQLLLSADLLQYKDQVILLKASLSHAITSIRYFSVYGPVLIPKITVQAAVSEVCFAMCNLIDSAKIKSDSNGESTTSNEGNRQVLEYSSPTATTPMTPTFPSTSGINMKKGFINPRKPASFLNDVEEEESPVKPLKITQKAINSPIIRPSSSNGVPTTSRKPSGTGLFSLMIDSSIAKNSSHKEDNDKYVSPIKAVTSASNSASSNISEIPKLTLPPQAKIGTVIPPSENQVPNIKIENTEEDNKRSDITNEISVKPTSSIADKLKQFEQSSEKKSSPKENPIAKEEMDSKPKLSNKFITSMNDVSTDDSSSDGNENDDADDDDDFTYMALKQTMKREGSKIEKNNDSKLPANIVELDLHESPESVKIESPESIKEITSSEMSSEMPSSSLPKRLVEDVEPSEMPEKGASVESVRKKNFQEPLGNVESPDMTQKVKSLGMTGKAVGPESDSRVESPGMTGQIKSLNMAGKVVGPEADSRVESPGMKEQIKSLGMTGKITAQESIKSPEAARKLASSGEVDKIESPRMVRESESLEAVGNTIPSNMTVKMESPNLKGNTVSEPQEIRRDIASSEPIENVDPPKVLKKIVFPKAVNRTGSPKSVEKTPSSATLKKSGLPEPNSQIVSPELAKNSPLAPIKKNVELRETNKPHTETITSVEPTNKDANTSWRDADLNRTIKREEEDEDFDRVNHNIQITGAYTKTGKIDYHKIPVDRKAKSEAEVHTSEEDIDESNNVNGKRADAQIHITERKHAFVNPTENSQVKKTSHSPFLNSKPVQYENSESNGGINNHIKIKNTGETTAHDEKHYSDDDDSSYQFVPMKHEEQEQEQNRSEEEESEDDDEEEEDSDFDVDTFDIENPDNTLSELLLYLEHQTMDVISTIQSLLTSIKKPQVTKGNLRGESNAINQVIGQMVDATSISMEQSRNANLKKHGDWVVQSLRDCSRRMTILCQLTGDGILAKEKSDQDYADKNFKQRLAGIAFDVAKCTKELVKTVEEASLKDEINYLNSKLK

[5] = molecular target: Aip5CRU (full-length Aip5 fused to C-terminal Ubiquitin-R (arginine)-Ura3) (Saccharomyces cerevisiae) (UniProt P43597); experiment: as above
[6] = molecular target: T2, GST Bud6_(1-141) (Saccharomyces cerevisiae) (UniProt P41697); experiment: pull-down; GST fusions from E. coli extracts on glutathione-coupled sepharose beads, washed, blocked with 0.1 mg/ml BSA, incubated 1 h with E. coli extract of His6 Aip5_(1000-end) in HBSEP (10 mM Hepes, 150 mM NaCl, 3 mM EDTA, 0.005% Tween-20); eluted with glutathione; anti-His blot; only the target purified
T2 sequence: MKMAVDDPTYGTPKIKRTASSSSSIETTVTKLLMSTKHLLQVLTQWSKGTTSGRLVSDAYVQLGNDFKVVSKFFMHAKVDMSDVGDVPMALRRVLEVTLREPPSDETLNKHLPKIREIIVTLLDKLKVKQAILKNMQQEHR

[7] = molecular target: T3, GST Bud6_(1-364) (Saccharomyces cerevisiae) (UniProt P41697); experiment: as above
T3 sequence: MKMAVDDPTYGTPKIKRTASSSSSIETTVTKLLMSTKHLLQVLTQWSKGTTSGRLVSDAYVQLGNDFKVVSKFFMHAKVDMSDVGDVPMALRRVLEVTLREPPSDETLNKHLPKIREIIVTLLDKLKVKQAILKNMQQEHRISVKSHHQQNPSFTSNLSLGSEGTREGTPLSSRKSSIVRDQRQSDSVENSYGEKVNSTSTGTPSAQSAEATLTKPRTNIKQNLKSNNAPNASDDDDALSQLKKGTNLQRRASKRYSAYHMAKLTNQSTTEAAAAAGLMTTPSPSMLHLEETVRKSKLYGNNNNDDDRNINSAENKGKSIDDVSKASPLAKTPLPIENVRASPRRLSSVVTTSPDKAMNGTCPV

[8] = molecular target: Aip5_(1000-end)CRU (Saccharomyces cerevisiae) (UniProt P43597); experiment: split reporter; split-ubiquitin, manual: haploid or diploid yeast co-expressing one CRU and one Nub fusion, tenfold serial dilutions from OD600=1 on medium with or without 1 mg/ml 5-FOA, 30°C, 2-7 days; also in cells lacking BUD6 or SPA2
[9] = molecular target: T4, Aip5_(1000-1131) as CRU fusion (Saccharomyces cerevisiae) (UniProt P43597); experiment: as above
T4 sequence: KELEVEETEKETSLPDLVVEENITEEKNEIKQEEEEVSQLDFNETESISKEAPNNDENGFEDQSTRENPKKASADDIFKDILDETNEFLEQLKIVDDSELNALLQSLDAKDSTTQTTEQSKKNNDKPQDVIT

[10] = molecular target: Aip5_(Δ1000-1125) CRU (Saccharomyces cerevisiae) (UniProt P43597); experiment: as above; remark: listed apart in the source
[11] = molecular target: Aip5CRU (full-length Aip5 fused to C-terminal Ubiquitin-R (arginine)-Ura3) (Saccharomyces cerevisiae) (UniProt P43597); experiment: as above; remark: listed apart in the source

For “Aip5_(300-end)-GFP (from UniProt P43597 300-1233) (domain or fragment)”, the binding [1] was “no binding”.

Nub-Spa2 (from UniProt P23201 1-1466) was tested, and the binding [2] was “binds”, the binding [3] was “binds” and the binding [4] was “binds”. For the same molecule, the binding [5] was “binds”.

In the case of “His6 Aip5_(1000-end) (from UniProt P43597 1000-1233) (domain or fragment)”, the binding [6] is reported as “binds” and the binding [7] is reported as “binds”.

B1: Nub-Bud6_(1-141) (domain or fragment, UniProt P41697 1-141)
chain: T2 sequence
B1 was tested, and the binding [8] was “binds”.

B2: Nub-Bud6 (protein, UniProt P41697 1-788)
chain: MKMAVDDPTYGTPKIKRTASSSSSIETTVTKLLMSTKHLLQVLTQWSKGTTSGRLVSDAYVQLGNDFKVVSKFFMHAKVDMSDVGDVPMALRRVLEVTLREPPSDETLNKHLPKIREIIVTLLDKLKVKQAILKNMQQEHRISVKSHHQQNPSFTSNLSLGSEGTREGTPLSSRKSSIVRDQRQSDSVENSYGEKVNSTSTGTPSAQSAEATLTKPRTNIKQNLKSNNAPNASDDDDALSQLKKGTNLQRRASKRYSAYHMAKLTNQSTTEAAAAAGLMTTPSPSMLHLEETVRKSKLYGNNNNDDDRNINSAENKGKSIDDVSKASPLAKTPLPIENVRASPRRLSSVVTTSPDKAMNGTCPVFLRIGDKTKKCHVQLPTTKNALRLLFIERFAYSPGANSFPDIYIMDPQYGVFYELEELNLLDIKEGFVIELKLEENPNNTIKEFIDTVKMEISNSQNDIIRHLKEMSFGSAISGKQTEVLPQPGLEANKHDLVGQNKKDDDKTIKDIQYELGKIKQVHNINRSNINETIFNILRKVDNFKSLSFSAKNSSNRMYMEKSQTELGDLSDTLLSKVDDLQDVIEIMRKDVAERRSQPAKKKLETVSKDLENAQADVLKLQEFIDTEKPHWKKTWEAELDKVCEEQQFLTLQEELILDLKEDLGKALETFDLIKLCCEEQEKNPSRSKSNPILPIMRPGTFNQVREQVMVAVQSLNPDHDSRVEAIDKAEKMWEMERKLKASNEFDDELENFVGNSNLKKSGGFEEVERIRKQKDEANLRAYFGPGFT
B2 was tested, and the binding [2] was “binds”, the binding [9] was “binds” and the binding [10] was “no binding”. For the same molecule, the binding [11] was “binds”.

From paper PMC6737964
